Measured values from US20140271457A1 (AbbVie / Abbott, published 2014).

B1: DVD2683 (bispecific antibody, human IgG1, kappa)
heavy: EVQLVESGGGLVQPGGSLRLSCAASGFTFSNYGVTWVRQAPGKGLEWVSMIWADGSTHYASSVKGRFTISRDNSKNTLYLQMNSLRAEDTAVYYCAREWQHGPVAYWGQGTLVTVSSGGGGSGGGGSEVTLRESGPGLVKPTQTLTLTCTLYGFSLSTSDMGVDWIRQPPGKGLEWLAHIWWDDVKRYNPALKSRLTISKDTSKNQVVLKLTSVDPVDTATYYCARTVSSGYIYYAMDYWGQGTLVTVSS[here human IgG1 constant region without letters]
light: DIQMTQSPSSLSASVGDRVTITCRASQLVSSAVAWYQQKPGKAPKLLIYWASARHTGVPSRFSGSGSGTDFTLTISSLQPEDFATYYCQQHYKTPFTFGQGTKLEIKRGGSGGGGSGDIQMTQSPSSLSASVGDRVTISCRASQDIRNYLNWYQQKPGKAPKLLIFYTSKLHSGVPSRFSGSGSGTDYTLTISSLQPEDIATYYCQQGLTPPLTFGGGTKVEIKRTVAAPSVFIFPPSDEQLKSGTASVVCLLNNFYPREAKVQWKVDNALQSGNSQESVTEQDSKDSTYSLSSTLTLSKADYEKHKVYACEVTHQGLSSPVTKSFNRGEC
B2: DVD2733 (bispecific antibody, human IgG1, kappa)
heavy: B1 heavy with T35E, M50G, S61D, S62T, G65S
light: B1 light with R24K, A53T, R54L, K93R
B3: DVD2684 (bispecific antibody, human IgG1, kappa)
heavy: EVQLVESGGGLVQPGGSLRLSCAASGFTFSNYGVTWVRQAPGKGLEWVSMIWADGSTHYASSVKGRFTISRDNSKNTLYLQMNSLRAEDTAVYYCAREWQHGPVAYWGQGTLVTVSSASTKGPEVTLRESGPGLVKPTQTLTLTCTLYGFSLSTSDMGVDWIRQPPGKGLEWLAHIWWDDVKRYNPALKSRLTISKDTSKNQVVLKLTSVDPVDTATYYCARTVSSGYIYYAMDYWGQGTLVTVSS[here human IgG1 constant region without letters]
light: DIQMTQSPSSLSASVGDRVTITCRASQLVSSAVAWYQQKPGKAPKLLIYWASARHTGVPSRFSGSGSGTDFTLTISSLQPEDFATYYCQQHYKTPFTFGQGTKLEIKRTVAAPDIQMTQSPSSLSASVGDRVTISCRASQDIRNYLNWYQQKPGKAPKLLIFYTSKLHSGVPSRFSGSGSGTDYTLTISSLQPEDIATYYCQQGLTPPLTFGGGTKVEIKRTVAAPSVFIFPPSDEQLKSGTASVVCLLNNFYPREAKVQWKVDNALQSGNSQESVTEQDSKDSTYSLSSTLTLSKADYEKHKVYACEVTHQGLSSPVTKSFNRGEC
B4: DVD2734 (bispecific antibody, human IgG1, kappa)
heavy: B3 heavy with T35E, M50G, S61D, S62T, G65S
light: B3 light with R24K, A53T, R54L, K93R
B5: DVD2686 (bispecific antibody, human IgG1, kappa)
heavy: B3 heavy
light: DIQMTQSPSSLSASVGDRVTITCRASQLVSSAVAWYQQKPGKAPKLLIYWASARHTGVPSRFSGSGSGTDFTLTISSLQPEDFATYYCQQHYKTPFTFGQGTKLEIKRTVAAPSVFIFPPDIQMTQSPSSLSASVGDRVTISCRASQDIRNYLNWYQQKPGKAPKLLIFYTSKLHSGVPSRFSGSGSGTDYTLTISSLQPEDIATYYCQQGLTPPLTFGGGTKVEIKRTVAAPSVFIFPPSDEQLKSGTASVVCLLNNFYPREAKVQWKVDNALQSGNSQESVTEQDSKDSTYSLSSTLTLSKADYEKHKVYACEVTHQGLSSPVTKSFNRGEC
B6: DVD2736 (bispecific antibody, human IgG1, kappa)
heavy: B3 heavy with T35E, M50G, S61D, S62T, G65S
light: B5 light with R24K, A53T, R54L, K93R
B7: DVD2687 (bispecific antibody, human IgG1, kappa)
heavy: EVQLVESGGGLVQPGGSLRLSCAASGFTFSNYGVTWVRQAPGKGLEWVSMIWADGSTHYASSVKGRFTISRDNSKNTLYLQMNSLRAEDTAVYYCAREWQHGPVAYWGQGTLVTVSSASTKGPSVFPLAPEVTLRESGPGLVKPTQTLTLTCTLYGFSLSTSDMGVDWIRQPPGKGLEWLAHIWWDDVKRYNPALKSRLTISKDTSKNQVVLKLTSVDPVDTATYYCARTVSSGYIYYAMDYWGQGTLVTVSS[here human IgG1 constant region without letters]
light: B3 light
B8: DVD2737 (bispecific antibody, human IgG1, kappa)
heavy: B7 heavy with T35E, M50G, S61D, S62T, G65S
light: B3 light with R24K, A53T, R54L, K93R
B9: DVD2783 (bispecific antibody, human IgG1, kappa)
heavy: EVQLVQSGAEVKKPGASVKVSCKASGYTFANYGIIWVRQAPGQGLEWMGWINTYTGKPTYAQKFQGRVTMTTDTSTSTAYMELSSLRSEDTAVYYCARKLFTTMDVTDNAMDYWGQGTTVTVSSGGGGSGGGGSEVTLRESGPGLVKPTQTLTLTCTLYGFSLSTSDMGVDWIRQPPGKGLEWLAHIWWDDVKRYNPALKSRLTISKDTSKNQVVLKLTSVDPVDTATYYCARTVSSGYIYYAMDYWGQGTLVTVSS[here human IgG1 constant region without letters]
light: DIQMTQSPSSLSASVGDRVTITCRASQDISQYLNWYQQKPGKAPKLLIYYTSRLQSGVPSRFSGSGSGTDFTLTISSLQPEDFATYFCQQGNTWPPTFGQGTKLEIKRGGSGGGGSGDIQMTQSPSSLSASVGDRVTISCRASQDIRNYLNWYQQKPGKAPKLLIFYTSKLHSGVPSRFSGSGSGTDYTLTISSLQPEDIATYYCQQGLTPPLTFGGGTKVEIKRTVAAPSVFIFPPSDEQLKSGTASVVCLLNNFYPREAKVQWKVDNALQSGNSQESVTEQDSKDSTYSLSSTLTLSKADYEKHKVYACEVTHQGLSSPVTKSFNRGEC
B10: DVD2784 (bispecific antibody, human IgG1, kappa)
heavy: EVQLVQSGAEVKKPGASVKVSCKASGYTFANYGIIWVRQAPGQGLEWMGWINTYTGKPTYAQKFQGRVTMTTDTSTSTAYMELSSLRSEDTAVYYCARKLFTTMDVTDNAMDYWGQGTTVTVSSASTKGPEVTLRESGPGLVKPTQTLTLTCTLYGFSLSTSDMGVDWIRQPPGKGLEWLAHIWWDDVKRYNPALKSRLTISKDTSKNQVVLKLTSVDPVDTATYYCARTVSSGYIYYAMDYWGQGTLVTVSS[here human IgG1 constant region without letters]
light: DIQMTQSPSSLSASVGDRVTITCRASQDISQYLNWYQQKPGKAPKLLIYYTSRLQSGVPSRFSGSGSGTDFTLTISSLQPEDFATYFCQQGNTWPPTFGQGTKLEIKRTVAAPDIQMTQSPSSLSASVGDRVTISCRASQDIRNYLNWYQQKPGKAPKLLIFYTSKLHSGVPSRFSGSGSGTDYTLTISSLQPEDIATYYCQQGLTPPLTFGGGTKVEIKRTVAAPSVFIFPPSDEQLKSGTASVVCLLNNFYPREAKVQWKVDNALQSGNSQESVTEQDSKDSTYSLSSTLTLSKADYEKHKVYACEVTHQGLSSPVTKSFNRGEC
B11: DVD2786 (bispecific antibody, human IgG1, kappa)
heavy: B10 heavy
light: DIQMTQSPSSLSASVGDRVTITCRASQDISQYLNWYQQKPGKAPKLLIYYTSRLQSGVPSRFSGSGSGTDFTLTISSLQPEDFATYFCQQGNTWPPTFGQGTKLEIKRTVAAPSVFIFPPDIQMTQSPSSLSASVGDRVTISCRASQDIRNYLNWYQQKPGKAPKLLIFYTSKLHSGVPSRFSGSGSGTDYTLTISSLQPEDIATYYCQQGLTPPLTFGGGTKVEIKRTVAAPSVFIFPPSDEQLKSGTASVVCLLNNFYPREAKVQWKVDNALQSGNSQESVTEQDSKDSTYSLSSTLTLSKADYEKHKVYACEVTHQGLSSPVTKSFNRGEC
B12: DVD2787 (bispecific antibody, human IgG1, kappa)
heavy: EVQLVQSGAEVKKPGASVKVSCKASGYTFANYGIIWVRQAPGQGLEWMGWINTYTGKPTYAQKFQGRVTMTTDTSTSTAYMELSSLRSEDTAVYYCARKLFTTMDVTDNAMDYWGQGTTVTVSSASTKGPSVFPLAPEVTLRESGPGLVKPTQTLTLTCTLYGFSLSTSDMGVDWIRQPPGKGLEWLAHIWWDDVKRYNPALKSRLTISKDTSKNQVVLKLTSVDPVDTATYYCARTVSSGYIYYAMDYWGQGTLVTVSS[here human IgG1 constant region without letters]
light: B10 light
B13: DVD3008 (bispecific antibody, human IgG1, kappa)
heavy: B9 heavy with A30N, T102N, M104V, D105A
light: B9 light with S30E, Q31N, W94Q

Biological target: Recombinant Human IL-13 (human, UniProt P35225 fragment, limits assumed)
Chain of UniProt P35225 (P35225 35-146 limits assumed): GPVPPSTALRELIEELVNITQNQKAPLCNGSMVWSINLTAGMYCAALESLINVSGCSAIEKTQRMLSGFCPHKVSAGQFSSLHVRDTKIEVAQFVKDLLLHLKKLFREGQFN
Test: cell-based or functional assay

| Binder | IL-13 Neutralization Assay IC50 [pM] |
| --- | --- |
| B1 | 133 |
| B2 | 119 |
| B3 | 1380 |
| B4 | 955 |
| B5 | 94 |
| B6 | 167 |
| B7 | 22 |
| B8 | 61 |
| B9 | 897 |
| B10 | 214 |
| B11 | 189 |
| B12 | 54 |
| B13 | 278 |

Changes are numbered by the printed parent chain.
